# Measured values published in the supplement of paper PMC12217912.
# This is one part of the list. Sequences were assembled here from the parent chain. Inactive controls read about 0.05.
# B1: TEV protease; numbered along this chain (parent)
# chain: MGESLFKGPRDYNPISSSICHLTNESDGHTTSLYGIGFGPFIITNKHLFRRNNGTLVVQSLHGVFKVKDTTTLQQHLVDGRDMIIIRMPKDFPPFPQKLKFREPQREERICLVTTNFQTKSMSSMVSDTSCTFPSGDGIFWKHWIQTKDGQCGSPLVSTRDGFIVGIHSASNFTNTNNYFTSVPKNFMELLTNQEAQQWVSGWRLNADSVLWGGHKVFMVKPEEPFQPVKEATQL
# Variants of: B1
# Assay: raw area under fraction-flipped curve 0-4 h after induction (AUC4h, not background-subtracted), DNA-recorder readout of cleavage of the substrate (dimensionless); higher = more cleavage of the substrate by the protease variant
# Details: temperature: 34 °C; time window: 0-4 h after rhamnose induction
# Description: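 In vivo DNA recorder in E. coli TOP10(DE3) ΔrhaA at 34 °C. Each TEVp single-site mutant (parent TEVp 0) is paired with a single-site variant of the 7-mer TEVs (canonical ENLYFQ|S). The substrate sits between flexible linkers in a Bxb1-sfGFP-TEVs-SsrA fusion, so cleavage stabilises Bxb1 and speeds flipping of a recombination array, read by NGS. The value is the raw area under the fraction-flipped curve over 0-4 h after rhamnose induction (AUC4h), with ≥20 reads per time point. It is not background-subtracted; inactive controls average about 0.047.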
# 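Further: Bxb1 expression induced with 0.2% (w/v) L-rhamnose at OD600 near 0.5, cultures sampled hourly, flipped fraction per protease–substrate barcode pair counted by paired-end Illumina sequencing.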
Variant,area with substrate ENLAFQS,area with substrate ENLDFQS,area with substrate ENLEFQS,area with substrate ENLFFQS,area with substrate ENLGFQS,area with substrate ENLHFQS,area with substrate ENLKFQS,area with substrate ENLNFQS,area with substrate ENLPFQS,area with substrate ENLQFQS,area with substrate ENLSFQS,area with substrate ENLTFQS,area with substrate ENLCFQS,area with substrate ENLIFQS,area with substrate ENLRFQS,area with substrate ENLVFQS,area with substrate ENLWFQS,area with substrate ENLMFQS,area with substrate ENLLFQS
Q194P,0.0737,0.0554,0.0575,0.0822,0.0846,0.0587,0.0814,0.0639,0.073,0.0735,0.0683,0.0863,–,–,–,–,–,–,–
T181A,0.0682,0.0643,–,–,–,0.0846,–,0.0791,–,–,0.0931,0.0689,0.0759,0.0734,0.047,–,–,–,–
Y179L,0.0777,–,0.0547,–,–,–,–,0.0648,0.0645,0.0482,0.0763,0.0863,–,–,0.0658,0.0652,0.0647,–,–
Y179T,0.0569,–,0.0701,0.0846,0.0616,0.0691,0.0395,0.0618,–,–,–,–,0.0626,–,–,–,–,–,–
L156M,0.0591,0.0563,0.0642,0.0804,–,0.0906,0.0856,0.0641,0.0795,0.0763,0.0766,–,–,0.0554,0.0689,–,–,0.0726,–
L156V,0.0655,0.0713,0.0612,0.0462,0.0594,0.0621,0.0791,0.073,0.0426,–,0.0516,–,0.063,0.0868,0.0641,–,0.0812,–,–
L156D,0.0439,0.0626,0.0658,0.0722,–,–,0.0589,0.0576,0.0681,–,–,–,0.0571,0.0566,0.058,0.044,0.0645,0.0662,0.0497
L156I,0.0539,–,0.0385,0.0913,–,–,0.0574,0.0676,0.051,0.0621,–,–,0.0687,–,–,–,0.058,0.0691,0.0465
G213D,0.0574,0.0611,0.0702,0.0657,0.0611,0.0556,0.0569,–,0.0624,–,0.0474,–,–,–,–,0.0398,0.0611,–,0.0505
G213W,0.0662,0.0618,0.0665,0.0671,0.0479,0.0648,0.0624,0.0626,0.0565,0.0651,0.0478,–,0.0607,0.0566,0.0354,0.0678,0.0597,0.0544,0.054
G213M,0.0645,0.0573,0.0756,0.0725,–,–,0.0644,0.0574,–,0.0581,0.0525,–,0.0679,–,–,0.0751,–,0.07,–
S154P,0.0803,–,0.0672,0.0845,–,–,0.0618,–,–,–,0.0516,–,–,–,–,–,–,–,–
K185F,0.0709,0.0658,0.0643,0.0764,–,0.0654,0.0706,0.0811,0.0681,0.0615,0.0485,–,–,0.084,–,–,0.0685,0.161,0.0776
K185I,0.0634,0.0589,0.065,0.0932,–,0.0551,0.0772,0.0732,0.0597,–,0.0675,–,0.0724,0.0786,–,0.0846,0.096,0.111,0.0496
K185E,0.0579,0.0514,0.079,0.0989,0.0722,0.0487,–,0.0486,–,0.06,0.0641,0.0753,0.0527,0.0788,0.0853,0.0917,0.0742,–,0.0606
